The source of these data is US20210221784A1, “COMPOUNDS AND COMPOSITIONS FOR THE TREATMENT OF PAIN” (Université de Strasbourg, priority 2018, published 2021).

The target of the test is T1, hNPFFR2 (Homo sapiens, UniProt Q9Y5X5).
T1 construct: expressed in transfected cells; membranes
Put plainly: Radioligand binding competition, membranes from CHO cells expressing hNPFFR2. To be noted: 0.015 nM [D-Tyr1[125I], N-MePhe3]-NPFF, 1 hr at 25° C., read-out: NPFF2-R Ki.

Molecules are shown by their SMILES. For part of its entries the source gives two or more results. This list holds those alone. An entry can have further records. Results that share an entry appear to be repeats (runs, samples, wells or individuals). A tag in brackets gives the origin of a value. Letters count within one entry.

T1 sequence (Q9Y5X5 whole entry): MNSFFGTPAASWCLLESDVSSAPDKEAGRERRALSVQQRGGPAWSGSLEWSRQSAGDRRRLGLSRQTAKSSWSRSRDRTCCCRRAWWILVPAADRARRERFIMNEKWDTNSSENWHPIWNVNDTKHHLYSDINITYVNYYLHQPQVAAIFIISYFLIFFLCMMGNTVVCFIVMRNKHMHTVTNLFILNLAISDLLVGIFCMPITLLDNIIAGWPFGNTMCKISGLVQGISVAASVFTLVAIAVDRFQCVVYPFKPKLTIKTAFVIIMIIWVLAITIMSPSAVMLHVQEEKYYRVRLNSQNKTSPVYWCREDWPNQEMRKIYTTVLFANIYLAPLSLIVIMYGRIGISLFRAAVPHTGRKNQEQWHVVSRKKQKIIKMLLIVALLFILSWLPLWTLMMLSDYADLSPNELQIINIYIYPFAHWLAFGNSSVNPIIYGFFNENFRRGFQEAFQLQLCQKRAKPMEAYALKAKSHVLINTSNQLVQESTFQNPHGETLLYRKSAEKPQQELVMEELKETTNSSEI

In general, Ki refers to the dissociation constant of the complex between target and ligand, obtained from inhibition or displacement. Turning to `Nc1ccc(-c2ccccc2)c(N)n1` [Compound 1a, 3-phenylpyridine-2,6-diamine], the inhibition constant Ki was 7.3 µM [table A] and 7.3 nM [table B].
